Among the data in a collection of fitness landscapes (doi:10.1126/science.1257360) are enrichment ratio values, retold here.

First the molecules themselves.
B1: PhoQ; a variant is named by its letters at X, in order, P23837 (parent)
chain: MKKLLRLFFPLSLRVRFLLATAAVVLVLSLAYGMVALIGYSVSFDKTTFRLLRGESNLFYTLAKWENNKLHVELPENIDKQSPTMTLIYDENGQLLWAQRDVPWLMKMIQPDWLKSNGFHEIEADVNDTSLLLSGDHSIQQQLQEVREDDDDAEMTHSVAVNVYPATSRMPKLTIVVVDTIPVELKSSYMVWSWFIYVLSANLLLVIPLLWVAAWWSLRPIEALAKEVRELEEHNRELLNPATTRELTSLVRNLNRLLKSERERYDKYRTTLTDLTHSLKTPLXXLQXXLRSLRSEKMSVSDAEPVMLEQISRISQQIGYYLHRASMRGGTLLSRELHPVAPLLDNLTSALNKVYQRKGVNISLDISPEISFVGEQNDFVEVMGNVLDNACKYCLEFVEISARQTDEHLYIVVEDDGPGIPLSKREVIFDRGQRVDTLRPGQGVGLAVAREITEQYEGKIVAGESMLGGARMEVIFGRQHSAPKDE

The other results are listed elsewhere or left out.

Variants of B1 are the subject of the assay. The assay can be described thus: enrichment ratio after two sorts for PhoP signalling (ratio (wild type AVST 3.29)); higher = more functional. Conditions: with PhoP (E. coli).
Turning to LEHS, the enrichment ratio is at most 0.25.
For WWDF, the enrichment ratio is at most 0.25.
Consider SDAY, for which the enrichment ratio is at most 0.25.
As to NWFE, the enrichment ratio was at most 0.25.
For FRHN, the enrichment ratio is at most 0.25.
Take TNEG: the enrichment ratio was at most 0.25.
As for AREG, the figure is at most 0.25.
For the variant MSQV, the enrichment ratio was at most 0.25.
For the variant ETYH, the enrichment ratio was at most 0.25.
RFCH: the enrichment ratio is at most 0.25.
The result for IFNY reads at most 0.25; that for PPYQ, at most 0.25.
As for VCLK, the figure is at most 0.25; as for PFVT, at most 0.25; as for WLLH, at most 0.25.
The result for FYVT reads at most 0.25.
With TERV, the enrichment ratio was at most 0.25.
Take ETTW: the enrichment ratio is at most 0.25.
Take CPSY: the enrichment ratio is at most 0.25.
With HMVN, the enrichment ratio is at most 0.25.
As for RAEL, the figure is at most 0.25.
The result for MTII reads at most 0.25; that for FTNL, at most 0.25.
As for PAWK, the figure is at most 0.25; as for GHTA, at most 0.25; as for RGLR, at most 0.25.
Take ICHI: the enrichment ratio was at most 0.25.
The result for THPY reads at most 0.25; that for VGLF, 0.598.
The result for LQHL reads at most 0.25; that for ANNQ, 5.32.
As for YCYN, the figure is at most 0.25; as for IWWP, at most 0.25.
Consider LATV, for which the enrichment ratio is at most 0.25.
As for PYSY, the enrichment ratio is at most 0.25.
For the variant TWFV, the enrichment ratio was at most 0.25.
The result for TCHG reads 6.13; that for PHNF, at most 0.25.
As to NGYY, the enrichment ratio was at most 0.25.
For KEIF, the enrichment ratio was at most 0.25.
For FVWK, the enrichment ratio is at most 0.25.
As for PFYA, the figure is at most 0.25.
As for MCAW, the figure is at most 0.25; as for TIEF, 6.64.
Take FWQQ: the enrichment ratio was at most 0.25.
As for MQPN, the figure is at most 0.25; as for GLER, at most 0.25; as for KYSY, at most 0.25.
The result for EYNG reads at most 0.25; that for NFYE, at most 0.25; that for YNNH, at most 0.25.
In the case of DQIK, the enrichment ratio was at most 0.25.
In the case of KYDA, the enrichment ratio was at most 0.25.
As for TIQQ, the figure is 16.4; as for RKPH, at most 0.25; as for HWVP, at most 0.25.
For the variant KPTT, the enrichment ratio is at most 0.25.
For RAII, the enrichment ratio is at most 0.25.
With IIKM, the enrichment ratio is at most 0.25.
The result for SDRE reads at most 0.25; that for IYCG, at most 0.25; that for EVVW, at most 0.25.
In the case of HWHQ, the enrichment ratio was at most 0.25.
As for MFHQ, the figure is 0.658.
As for KESG, the figure is at most 0.25; as for ETWV, at most 0.25.
For the variant WRIH, the enrichment ratio was at most 0.25.
The result for QTWP reads at most 0.25; that for LQAG, at most 0.25.
The result for TYFE reads at most 0.25; that for GYDL, at most 0.25.
As for MTYA, the figure is at most 0.25; as for PEIN, at most 0.25; as for DMWP, at most 0.25.
With DRGK, the enrichment ratio was at most 0.25.
The result for FCMF reads 0.805.
As for SMYF, the figure is at most 0.25; as for PYRC, at most 0.25; as for NRCQ, at most 0.25.
With IQER, the enrichment ratio was at most 0.25.
Take QLAD: the enrichment ratio is at most 0.25.
As for GGAG, the enrichment ratio was at most 0.25.
The result for CSTS reads at most 0.25; that for GIWH, 4.21.
As for NTCI, the figure is at most 0.25; as for KPNM, at most 0.25; as for EPDI, at most 0.25.
As for SSMG, the enrichment ratio is 10.3.
